Laboratory results taken from the RNAGym collection of RNA variant scans (doi:10.1093/nar/gkz1192).
The source gives no read counts; variants with many changes may rest on few reads.

B1: CPEB3 Ribozyme (parent)
chain: UAACAGGGGGCCACAGCAGAAGCGUUCACGUCGCAGCCCCUGUCAGAUUCUGGUGAAUCUGCGAAUUCUGCUGUAUAUCUC

Variants of: B1
Assay: self-cleavage, relative activity (ratio to wild type); higher = more cleavage; in vitro, sequencing
Method in brief: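 After error-prone PCR and barcoding, CPEB3 ribozyme mutant libraries were transcribed with T7 RNA polymerase at 37°C for 5 hours, then given 15 min with DNase I before an EDTA stop, and they cleaved during both steps. Reverse transcription with template switching preceded Illumina sequencing. Relative activity divides a variant's cleaved/total read fraction by the unmutated ribozyme's. At least 5 reads were required per variant, and three batches were averaged.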

Row | Variant | self-cleavage
1 | A2G A35G U67C | 0.39
2 | A2U G9A U41A U51A A56U C59U U69A | 0.04
3 | A3G A5G A35G A47U U49C A64U | 0.19
4 | A2G A64G U66C U74C A75G | 0.2
5 | A2U C27A A35G A45G | 0.18
6 | A2G A21C U72C | 0.14
7 | A3G A5G A28G A56U U80C | 0.06
8 | A2G A21G U43C | 0.49
9 | A3G A13G G19C A28G C29U C38U C40A | 0.07
10 | A2G C32U U80G | 0.37
11 | A3C A13G U74C | 1.1
12 | A3C G36U U51G U54G U69A | 0.11
13 | A2G A28U C40A U43C U72A | 0.09
14 | A3G A13G U51C | 0.84
15 | A3G A5G A15G A45G A57G | 0.15
16 | A2U C14U A15G U25C A45G A64G | 0.09
17 | A2G G33A C68U U78A | 0.09
18 | A2G G8U U25C U31C C34G U80C | 0.44
19 | A3C A15G A28G A45G | 0.48
20 | A3G A13C A64G A75G | 0.97
21 | A3C A20G C44A C50A U74C | 0.15
22 | A2U A35G G53A | 1.23
23 | A2G U76A A77G | 0.63
24 | A2G A28G U43G | 0.33

Row | Variant | self-cleavage
25 | A2U C11U A45U A57G U76G | 0.22
26 | A3G A15G C32G U67A | 0.1
27 | A3G A13U G22A | 0.41
28 | A2U A5G U31G A47G U48C | 0.32
29 | A2U A28U A45U U54A C62U U76C A77G | 0.09
30 | A2G U67C U69G | 0.12
31 | A3C U51A U60A U78C | 0.66
32 | A3G A15G U25C U48C U66C | 0.13
33 | A3G A15G A47U A64G | 0.39
34 | A2G C37A U41A A56U | 0.28
35 | A3C G9U A18U U31C U72C | 0.08
36 | A2G U31C U41C A45U U66C | 0.23
37 | A2U A5U U80A | 0.74
38 | A3G A13G U25C C38G U66G | 0.31
39 | A2G A47C A56G U60C | 0.25
40 | A3G A15G A21G U49C G53C A77G | 0.15
41 | A2U U67C U69G A77U | 0.25
42 | A3G A5G U26C U66C | 0.12
43 | A2G G33A U41G U78C | 0.22
44 | A2G G8A A45C A56G | 0.41
45 | A2U G22A C39U A57G U69A C81U | 0.11
46 | A2U A3G G7U U41G | 0.08
47 | A3G A15G A21G U58A | 0.15
48 | A3G A5G C11G U72A | 0.44

Row | Variant | self-cleavage
49 | A2U G52A A77G | 1.15
50 | A2G C11G A18G U25C U76A U80C | 0.07
51 | A2G G10C C39A U66A | 0.06
52 | A2G C12A U51A U54C A56U | 0.24
53 | A2G A45U A65G | 0.1
54 | A2U G16U U41C G63A | 0.54
55 | A3G A5G G9A A13U U41C U80C | 0.88
56 | A2G A20U U58C | 0.1
57 | A3G A13G G30A U49C U80C | 0.13
58 | A2U A3G A13G U25C C34U | 0.41
59 | A2U U41G U67C G70A U74C | 0
60 | A2G G10C U49C U69C | 0.05
61 | A3G A5U A15G U25C U72C U74C A75G | 0.04
62 | A3G A13G U25A C40A U49C A56U U80G | 0.12
63 | A2U G8A A21G U80C | 0.43
64 | A2U G30A A56U | 0.27
65 | A3G A13G A35U A47G U69C | 0.47
66 | A2G U43C U60A U72C | 0.33
67 | A3G A13U A28U A35G A65C A77G | 0.23
68 | A3C G7A A47U U60C | 0.07
69 | A2G G9U A21G U25C A56U U76A | 0.06
70 | A2U C12U U26A | 1.2
71 | A2G U26A U80C | 0.62
72 | A2U C12U A47U U58C U60C A64U | 0.08

Row | Variant | self-cleavage
73 | A3G A13G U31C U51G | 0.68
74 | A2G A28G A45G U67C | 0.3
75 | A3G A5U U31C U49C U60C G70U | 0.11
76 | A2U A15G U41C U74C | 0.81
77 | A2U C11G C17A C62G | 0.2
78 | A2G U25C U41C U51A A57G A75G U80A | 0.01
79 | A2G A20U A57U G61A A64U | 0.12
80 | A2U A3G A15U A21G A35G U67C | 0.12
81 | A2G U26C U49A U69C U78A | 0.06
82 | A3C A21G U25C U60A | 0.39
83 | A3G A5G U25C A28G U41C U80C | 0.57
84 | A3G A13G A20G U51C U60A | 0.51
85 | A2U U54C U58A | 0.31
86 | A2G G36C U51A | 0.26
87 | A3C U43C U76A | 0.71
88 | A2G A28G C29G U72A | 0.22
89 | A3G A13U C40U U66C U69C | 0.31
90 | A3G A13U A35U A77G | 0.84
91 | A3G A13G A77G | 0.85
92 | A2U U31C U41C G53A A57G | 0.52
93 | A2G U31C C39U U72A U80C | 0.44
94 | A3C G6A A77G U80A | 0.58
95 | A2G A28G A65G | 0.15
96 | A2U U54G A57U G70A A77G | 0.3

Row | Variant | self-cleavage
97 | A2G U26C A57G U58C U66C | 0
98 | A2G U43C U58A U80C | 0.11
99 | A3C U60C A64G | 0.68
100 | A3G A5U G9U U69A C81G | 0.48
101 | A2G U25C U41C A45G U58C U67C | 0.17
102 | A2G C23U U26C U72C | 0.12
103 | A2U A45G U51C U80G | 0.74
104 | A3C A18G U51C U69C U80C | 1.35
105 | A2U A45U U60A | 1.13
106 | A3C A5U U78C | 1.03
107 | A2G A65G U66C U72A U78C U80A | 0.04
108 | A2U G36C A75U | 0.06
109 | A2U U26C U54C U60A U69A | 0.13
110 | A2U A3U G7A G53U U58C | 0.39
111 | A3C A15U C62A | 0.08
112 | A3G A13U A18U U54G G61C U76A | 0.23
113 | A2G G8A A28G C39A A45G G52A | 0.05
114 | A2G U43A A45G | 0.87
115 | A2G A65G U67C | 0.29
116 | A3G A15G A28G U31A A65G U72A U80A | 0.1
117 | A2G U54C A56U U80C | 0.17
118 | A2G A28U U41A U54C | 0.08
119 | A2U U74C A75U | 1.1
120 | A2G C12U U72A | 0.61

Row | Variant | self-cleavage
121 | A3C A13G A20U G33A G36A U43C | 0.24
122 | A2G G6A A21G U49C | 0.39
123 | A3G A13G A21C G46U U80G | 0.44
124 | A3G A5U C23U A35G A57G C59A | 0.14
125 | A2G A56G U66G | 0.23
126 | A2G C44U G53A A57U U72C | 0.11
127 | A3G A13G A21G U26C C29U U72C | 0.05
128 | A2G A35G A45U U54A U74A | 1.11
129 | A2G G7C A28G | 0.08
130 | A2G U31C G36A A45U U48A A75G | 0.06
131 | A3G A13U A21G A64G U69C | 0.18
132 | A2G C4U A35U U60C | 0.21
133 | A2U A28G C40G | 0.29
134 | A3C G16C U48G C59A | 0.33
135 | A2U A45U U49C A64G | 0.28
136 | A2U A5G U69C | 0.38
137 | A3G A5G A20G A35C U69C | 0.43
138 | A2G A21G U26G A45G A56U U74C | 0.07
139 | A2G G6U A21G | 0.12
140 | A3G A13U G16U U49C C62G U78C | 0.08
141 | A3G A5G U43C U51G G52A U58A | 0.15
142 | A2G G6U U25C U66C | 0.1
143 | A2G C12U G36A C37A U41A U54C | 0.21
144 | A2G U31C G46U U54C | 0.22

Row | Variant | self-cleavage
145 | A2G G8U A20G C62G C81G | 0.06
146 | A2G C11U C12U U54C A56G A64G | 0.06
147 | A3G A13G A15G | 0.7
148 | A3G A13U C62U | 0.37
149 | A3G A13G A21G A35G C40A U67C | 0.18
150 | A2G C23U A28C U41C C68A | 0.23
151 | A2G U26A U58A A64G | 0.05
152 | A3G A5U A18G U72C U80C | 1.02
153 | A2U A13G A18G U51A | 0.2
154 | A2U G7U C17U U72C | 0.28
155 | A3G A13G A18U G33A U78C | 0.34
156 | A2G C17U A20U A28G A45G U51C U60A | 0.18
157 | A3G A5G U25C U72A | 0.19
158 | A2G U31C U78C | 0.61
159 | A2G G52U U54C U69C A77U | 0.38
160 | A2U A21G G24A A35G U72A | 0.1
161 | A2G U25C A45U | 0.1
162 | A3C A5G A28G G55U | 0.69
163 | A3G A13U U69C | 0.6
164 | A2G U25A A45U U51A U78C | 0.25
165 | A2G U51C G70A | 0.25
166 | A3G A5C C14U U48C U51C A56U A77G | 0.23
167 | A2G U25C A47G U72A | 0.07
